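All cell lines were grown in 96-well plates and treated with compound for 48 hours. GI50 = concentration required for 50% inhibition of growth.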 The source made the active and inactive calls. Cut-off read from the data, not from the text of the source: active = GI50 up to about 1.1 µM and inactive = higher.
The compounds below were run on NCI-H322M (assay: NCI-60 cell line screen, 48 h).
In the case of `O=[As](O)(O)c1ccc(NCc2ccccc2)cc1`, the GI50 is reported as inactive: > 100 µM. `Clc1ccc(C2SCc3nc4ccccc4n32)cc1Cl` (configuration not stated) was tested, and the GI50 was inactive: 22.3 µM. For `O=c1[nH]c2nccnc2c2c([N+](=O)[O-])cccc12`, the GI50 was inactive: > 100 µM. With `CC(C)(C)OC(=O)NC(Cc1ccc(OC(C)(C)C)cc1)C(=O)N[C@H]1CCC[C@H]1C(=O)NC(Cc1ccccc1)C(=O)N1CCCC1C(N)=O` (some centres not stated) the GI50 was inactive: > 100 µM. In the case of `CC1S/C(=N\N=C2/C(=O)Nc3ccc(Br)cc32)N(C2CCCCC2)C1=O` (configuration not stated), the GI50 is reported as inactive: 1.8 µM. With `Cc1cccc(NC(=O)CC2C(=O)Nc3ccccc3S2(=O)=O)c1C` (configuration not stated) the GI50 was inactive: 90.4 µM. With `CC(=O)Nc1ccc2c3c(cc(O)c2c1)N(C(=O)CCCCC(=O)N1CC(CCl)c2c1cc(O)c1cc(NC(C)=O)ccc21)CC3CCl` (configuration not stated) the GI50 was inactive: 1.66 µM. In the case of `CS(=O)(=O)N1CC(CCl)c2ccc([N+](=O)[O-])cc21` (configuration not stated), the GI50 is reported as inactive: > 100 µM. With `Nc1ccc(Oc2ccc(C34CC5C6CC7(c8ccc(Oc9ccc(N)cc9)cc8)CC5C(C3)C(C7)C6C4)cc2)cc1` the GI50 was inactive: > 100 µM. For `COc1cccc(-c2cc(C(=O)Nc3ccc(Cl)cc3)nc(N)n2)c1`, the GI50 was inactive: > 100 µM. For `O=C1OC(CCCl)(c2ccccc2)CC1CN1CCOCC1` (configuration not stated), the GI50 was inactive: 43 µM. For `Cc1[nH]c(-c2ccccc2)c(-c2ccc(Cl)cc2)c1C(=O)ONC(=O)c1ccccc1`, the GI50 was inactive: 9.02 µM. `CC(=O)NCCCCN(CCCNC(C)=O)C(=O)CNS(=O)(=O)c1cccc2c(N(C)C)cccc12` was tested, and the GI50 was inactive: > 100 µM. `Cc1cc(C)c(OC(=O)Nc2cccc3ccccc23)c(-c2ccccc2)c1` was tested, and the GI50 was inactive: 43.8 µM. With `Cc1csc(=S)n1OC(=O)NC1CCCCC1` the GI50 was inactive: 75.3 µM. In the case of `CCCCCCCCCC(=O)CC(=O)c1c(O)cccc1O`, the GI50 is reported as inactive: 39.7 µM. For `COc1ccc(-c2c(C#N)c(-c3ccc(C)cc3)n(NS(=O)(=O)c3ccccc3)c(=O)c2C#N)cc1`, the GI50 was inactive: > 100 µM. For `O=C1C(=O)N(c2ccc(Cl)cc2Cl)C(=O)C(=O)C1c1nc2ccccc2o1`, the GI50 was inactive: > 100 µM. For `O=c1oc(-c2ccccc2)cn1-c1ccccc1`, the GI50 was inactive: > 100 µM. `CC1CNC(NS(=O)(=O)c2cc(C(=O)Nc3ccccc3)c(Cl)cc2S)=NN1` (configuration not stated) was tested, and the GI50 was inactive: 48.3 µM. For `O=C1/C(=C/c2ccc(Cl)cc2)NC(=S)N1CN1CCCCC1`, the GI50 was inactive: > 100 µM. `CCn1c(-c2ccc(OC)cc2)nc2c1C(=O)c1ccccc1C2=O` was tested, and the GI50 was inactive: > 100 µM. For `CC1(Cc2ccccc2)NC(=S)NC1=O` (configuration not stated), the GI50 was inactive: > 100 µM. With `C=CCCCn1ccc2ccccc21` the GI50 was inactive: > 100 µM. For `C1=C(N2CCOCC2)/C(=C2\SC(=N/c3ccccc3)/C(=N\c3ccccc3)N2c2ccccc2)CC1`, the GI50 was inactive: > 100 µM. `C/C(=N\NC(=S)Nc1ccccc1)c1nc2cccnc2[nH]1` was tested, and the GI50 was inactive: 5.02 µM. `CN1CCC2(c3ccccc3)CC(=O)/C(=C/c3ccc(Cl)c(Cl)c3)C1C2.[O-][Cl+3]([O-])([O-])O` (configuration not stated) was tested, and the GI50 was inactive: 5.18 µM. In the case of `COC(=O)C1(C(=O)OC)N=C(C)OC1c1ccccc1O` (configuration not stated), the GI50 is reported as inactive: > 100 µM. In the case of `O=C(/C=C/c1csc(-c2ccccc2)n1)NCc1ccc(C(=O)NCc2ccccc2)cc1`, the GI50 is reported as inactive: > 100 µM. For `CC12N=NNC1C(=O)NC2=O` (configuration not stated), the GI50 was inactive: > 100 µM. `CC1(C)CC(=O)C(=CNC(=O)c2ccncc2)C(=O)C1` was tested, and the GI50 was inactive: > 100 µM. `Cc1n(-c2ccccc2)c2c([n+]1Cc1ccc([N+](=O)[O-])cc1)C(=O)c1ccccc1C2=O` was tested, and the GI50 was inactive: 2.49 µM. In the case of `COc1cc(/C=C/c2sc3ccccc3[n+]2C)ccc1N(C)C`, the GI50 is reported as inactive: 20.4 µM. For `COc1cc2c(cc1OC)C(Cc1ccccc1CCCl)=NCC2`, the GI50 was inactive: > 100 µM. With `CC12CC[C@H](O)C(C)(C)[C@H]1CC[C@](C)(O)C2COc1ccc2ccc(=O)oc2c1` (some centres not stated) the GI50 was inactive: > 100 µM. In the case of `ClC1(Cl)C(c2ccccc2)C1c1ccccc1` (configuration not stated), the GI50 is reported as inactive: 43.8 µM. In the case of `CCOC(=O)c1[nH]c(Br)c(-c2ccc(OC)c(OC)c2)c1Br`, the GI50 is reported as inactive: > 10 µM.
